# Measurements reported in PMC4336329 (PLoS ONE, 2015).
# In all, about 310,000 compounds went through this assay and about 2,200 (0.71%) showed an effect of 50% or more. The effect is printed as a negative number. This is one part of the list.
# Biological target: human ether-à-go-go-related gene (hERG) potassium channel (human, UniProt Q12809)
# Assay: primary screen, population patch clamp on CHO cells stably expressing hERG
# Sequence of human ether-à-go-go-related gene (hERG) potassium channel (Q12809 whole entry, looked up): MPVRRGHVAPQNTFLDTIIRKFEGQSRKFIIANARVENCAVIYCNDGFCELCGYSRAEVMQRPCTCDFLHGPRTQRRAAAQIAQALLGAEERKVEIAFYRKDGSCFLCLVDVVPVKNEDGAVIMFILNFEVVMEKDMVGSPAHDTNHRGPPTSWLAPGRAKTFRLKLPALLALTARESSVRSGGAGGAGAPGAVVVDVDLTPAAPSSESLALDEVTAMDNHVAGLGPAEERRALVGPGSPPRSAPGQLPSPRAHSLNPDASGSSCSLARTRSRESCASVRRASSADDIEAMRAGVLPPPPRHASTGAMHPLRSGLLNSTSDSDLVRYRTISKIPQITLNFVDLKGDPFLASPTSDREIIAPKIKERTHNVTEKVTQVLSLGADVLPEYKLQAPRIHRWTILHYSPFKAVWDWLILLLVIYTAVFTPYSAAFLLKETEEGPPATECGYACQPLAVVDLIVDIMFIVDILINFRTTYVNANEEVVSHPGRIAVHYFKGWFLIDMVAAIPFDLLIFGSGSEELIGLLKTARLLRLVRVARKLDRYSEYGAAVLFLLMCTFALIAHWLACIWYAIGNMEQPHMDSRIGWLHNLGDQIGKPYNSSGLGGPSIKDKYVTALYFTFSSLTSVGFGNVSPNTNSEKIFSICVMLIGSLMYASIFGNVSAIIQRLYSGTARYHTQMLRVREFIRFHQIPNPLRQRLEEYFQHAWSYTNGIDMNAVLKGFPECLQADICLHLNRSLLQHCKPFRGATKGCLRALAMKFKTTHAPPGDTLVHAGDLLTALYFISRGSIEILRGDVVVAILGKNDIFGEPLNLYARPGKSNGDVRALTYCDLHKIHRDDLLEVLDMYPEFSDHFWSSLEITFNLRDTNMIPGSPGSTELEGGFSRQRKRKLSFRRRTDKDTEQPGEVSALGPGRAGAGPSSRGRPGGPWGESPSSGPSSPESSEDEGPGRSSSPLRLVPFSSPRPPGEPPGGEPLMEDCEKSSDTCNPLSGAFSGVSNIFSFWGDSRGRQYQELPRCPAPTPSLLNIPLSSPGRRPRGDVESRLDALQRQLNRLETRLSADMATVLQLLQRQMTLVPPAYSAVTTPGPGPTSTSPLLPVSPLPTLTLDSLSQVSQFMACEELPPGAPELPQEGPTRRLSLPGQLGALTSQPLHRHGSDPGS
row,SMILES,"hERG current change (%, negative = inhibition) at 1uM [%]"
1,COc1cccc(C(=O)NC2CCCN(C3Cc4ccccc4C3)C2)c1OC (stereo not drawn),0.941
2,CCCc1ccc(Oc2cn[nH]c2-c2ccc(O)c(C)c2O)cc1,13.5
3,CCn1c(=O)c(=O)[nH]c2cc(C(=O)N3CCN(c4ccccc4F)CC3)ccc21,12.7
4,COc1ccc(CCNC(=O)COc2ccc(S(=O)(=O)NC3CCCCC3)cc2Cl)cc1OC,12.9
5,CCS(=O)(=O)c1ccc2oc(SCC(=O)c3ccco3)nc2c1,1.27
6,O=C(NC1CCCC1)C(c1ccco1)N(C(=O)c1csnn1)c1ccccc1 (stereo not drawn),5.46
7,Cn1c(=O)c2c(nc(NCc3ccc4c(c3)OCO4)n2Cc2ccc(F)cc2)n(C)c1=O,5.06
8,O=C(O)c1cn(-c2ccccc2)nc1-c1cccnc1,-2.62
9,COc1cc(/C=N/NC(=O)c2cccnc2)ccc1OC(=O)c1ccco1,0.304
10,CC(NC(=O)C1CCN(S(=O)(=O)c2ccccc2)CC1)c1ccccc1 (stereo not drawn),8.87
11,COC(=O)c1sc(SC)c(-c2ccon2)c1C,12.8
12,Cc1cccc(OCCOC(=O)c2ccc(F)c(S(=O)(=O)N3CCOCC3)c2)c1,4.87
13,O=C(NCCC1=CCCCC1)C(=O)NCC(c1ccco1)N1CCN(c2ccc(F)cc2)CC1 (stereo not drawn),10.3
14,Cc1c(Cl)cccc1NC(=S)N1CCCCCC1,11.5
15,Cc1ccc2c(=O)cc(C(=O)NC3CCS(=O)(=O)C3)oc2c1C (stereo not drawn),14.1
16,O=C(O)C1CCCCC1C(=O)Nc1cc(C(F)(F)F)ccc1Cl (stereo not drawn),18.9
17,c1ccc(CSc2nnc(Cc3ccccc3)o2)cc1,20.5
18,N#Cc1nc(COc2ccccc2F)oc1N1CCCCCC1,2.41
19,Cc1ccc(S(=O)(=O)Cc2ccc(C(=O)NC3CCCC3)o2)cc1,13.8
20,Fc1ccc(NC(=S)Nc2cccc(Cl)c2)cc1,4.64
21,COC(=O)C1=C(c2ccc(S(C)(=O)=O)cc2)C[C@@H]2CC[C@H]1N2C(=O)NCc1ccccc1,2.04
22,O=C(CCC(=O)N1CCc2ccccc2C1)N1CCN(S(=O)(=O)c2ccccc2)CC1,-6.23
23,COCCCNC(=S)Nc1c(C)cc(C)cc1C,16.4

row,SMILES,"hERG current change (%, negative = inhibition) at 1uM [%]"
1,Cc1ccc(S(=O)(=O)N2CCN(c3nn(C)c(=O)n(C)c3=O)CC2)cc1C,7.8
2,COc1cc(NC(=O)COc2cc(O)c3c(c2)OC(C)(C)CC3=O)cc(OC)c1OC,-4.79
3,CCCNC(=O)c1onc(CSc2ccccn2)c1C(=O)NCCC,14.2
4,CN(Cc1ccccc1)C(=O)CN(C1CCCCC1)S(C)(=O)=O,4.32
5,CC1(C)Cn2c(nnc2-c2cccc(O)c2)S1,-0.25
6,CCN(CC)S(=O)(=O)c1ccc(N2CCOCC2)c(NC(=O)c2cc3ccccc3oc2=O)c1,16.4
7,Cl.NCc1ccc2[nH]c(=O)[nH]c2c1,11.2
8,Cc1cccc(C)c1NC(=S)N1CCC(N(C)CC2CCCO2)CC1 (stereo not drawn),-6.2
9,Cc1ccc(-n2c(SCC(=O)NCc3ccco3)nnc2-c2cccnc2)cc1,-16.5
10,O=C(CCS(=O)(=O)c1ccc(Cl)cc1)NCCC1=CCCCC1,13.7
11,COc1ccc(NC(=O)CN(C)C(=O)Cc2n[nH]c(=O)c3ccccc23)cc1,16.2
12,Cc1cc(C)cc(N=C2NC(=O)CS2)c1,2.9
13,O=C1CCCc2nn(-c3ccccc3)c(-c3ccncc3)c21,13
14,CN1C(=O)CC(N2CCN(C(=O)c3ccccc3)CC2)C1=O (stereo not drawn),-8.21
15,Cc1nc(NC(=O)C2CCCCC2C(=O)O)sc1C (stereo not drawn),5.96
16,CN(C)c1nc(N(C)C)n(Cc2c(Cl)cccc2Cl)n1,17.6
17,CC(=O)Nc1ccc(C(=O)NCC2CCCCC2)cc1,8.14
18,Cc1cccc(-c2noc(CN(C(=O)CCc3ccccc3)C(C)C)n2)c1,9.65
19,O=C1N/C(=N\S(=O)(=O)Cc2ccccc2)S/C1=C/c1cc([N+](=O)[O-])ccc1O,12.5
20,Cc1ccc(C)c(C(=O)CN2C(=O)NC3(CCCCCCC3)C2=O)c1,4.49
21,CCOc1ccccc1NC(=O)c1cnc2n(c1=O)CCS2,8.49
22,O=C(NC1CCCc2ccccc21)c1ccc(F)cc1F (stereo not drawn),-1.31
